# Source: the RNAGym collection of RNA variant scans (doi:10.7554/elife.90254)
# Read counts are not given, so values of variants with three or more changes are uncertain.
# B1: LINE1-mini (parent)
# chain: GGCAGAGCUCAACACAGCGUGGCAAAGUGGCUGUGGCUAGACUGCC
# Variants of: B1
# Assay: self-cleavage, relative activity (ratio to wild type); higher = more cleavage; in vitro, sequencing; the parent is a self-cleaving ribozyme
row,Variant,self-cleavage
1,A6C G17A G21C A24U C37A C42U,0.05
2,G5A C13A A41U,0.13
3,G2C C10G C15U U43A,0.01
4,C3G G7C C15U,0.06
5,C23U A25G G27A U28C,1.2
6,A14G G17U U43A C46U,0
7,C8G A14C G30A C42A,0.06
8,A14U G19U G27U G40C,0.05
9,A6U A11G U32C,0
10,G5C A12U A25C G30C,0.01
11,G2C C13A U34G,0.08
12,A4U C37U C42U,0.01
13,G1C C13U C23U G36A,0.09
14,A6C U9A G33A A41C,0.07
15,G17A G22A G40U,0.01
16,A11G G19A A25G,0.02
17,C10A U34C C37G,0.04
18,U9C A11U G30A G33U U38G,0.03
19,G1U U9C A16U A24G A26G C42G G44U,0.01
20,G29U C31G C42A,0.06
21,C3U G22A A26U G30U C37U U43C,0.03
22,C8G A25C G35U,0.15
23,G1A C18G G35U,0.07
24,C15G C37G A39U,0.02

row,Variant,self-cleavage
1,G17C G19U U28C,0.17
2,G2U G21C U32C,0.02
3,A11G C18G G22U A26U,0.01
4,U9G A11C G21U C45G,0.01
5,A6C G40A U43G,0.03
6,G7U G21U G22A C23A A24G G33U,0.2
7,G1A C8U G19A,0.15
8,C15G G35U G40A G44C,0
9,A11C C13A A39G,0.02
10,G1A C3G G22C G30A U34A C42U,0.34
11,G1A G5C A12G G35C,0.08
12,G17U G21U A25G,0.06
13,A4U A6U G7U A26U G44C,0.1
14,A4G G21U C31U U38G,0.02
15,U28G G35C C37A U38C C46A,0.03
16,G1A G17A G30C A39U,0.02
17,U20C C45U C46A,0.12
18,A14C G17U C18G G27U A41C,0.06
19,G5A C23G G35C C37U,0.1
20,C8U U20A A26U U32A G35C C37U,0.01
21,G22C G29U G40A A41G C42U,0.09
22,G1C C10A C13U,0.03
23,A4G C8G C15A,0.05
24,U9G G29A G40U,0.02

row,Variant,self-cleavage
1,A14C C23U A41G U43A,0.03
2,A16G G30U U32C C45U,0.59
3,C10A G33C A39U,0.02
4,C8G G29C U43A,0.03
5,G2A A12C C42A,0.01
6,G7C C18G A24G,0.04
7,C23A G29C G36C C37A,0.11
8,C8A C31U C46A,0.2
9,G1C G5C G30A,0.03
10,A11U C13U G19C A24G U38G,0.01
11,C8U C10A G19C,0.01
12,C10G G29C A41C,0.01
13,G2C U9C C18A,0.01
14,G19A G29U G30C,0.46
15,C8A C37U A41C,0.07
16,A24G G27A A39U,0.45
17,G1U C10A A39C G44A,0.01
18,U9C U32G A39G,0.03
19,A4C C37A A41C C42A,0.1
20,G1U G7U U28G C45U,0.02
21,G1A C18A C31G,0.04
22,G1A G17U U32G C46U,0.02
23,G7C A14C C37A C45A,0.09
24,G1C U9G G17C A26C G30U C46G,0

row,Variant,self-cleavage
1,G7U C18G U28G,0.12
2,A16U A26U A41C,0.01
3,G30A U32A U34A A41C G44U,0.01
4,C3A C18G U38C,0.04
5,C10U G29U C42G,0.06
6,G1U U20C G35C,0.01
7,G1U A26U C31U U43C,0.06
8,U34G A39U C42U,0
9,C13G G21A A25G G36U,0.1
10,U20G G21A U32G C42G U43G,0.03
11,A12U G29C G35C U43A,0.01
12,C13U A41U C42U,0.05
13,C10U G22A A24G G33C C45G,0.03
14,G5U C13U A26C,0.07
15,C10U G22U A25G U38G C46A,0.04
16,A16U C18G G30A C45G,0.01
17,C10U A12U U20G G27A,0.15
18,A12C C13U U20A,0.05
19,A4G A16U G35U U38G C45G,0.02
20,G1A G7C U34G C45G,0.15
21,C3U G5A C10G U34A,0.02
22,A4U C23A U34A,0.06
23,A11G G19A G33A C45A,0.01
24,C18U G21U G36A,0.3

row,Variant,self-cleavage
1,C13U U34G G36U,0.09
2,C3G C15G G36A C37U G40A C46G,0.08
3,G2A C8G G21A A39U,0.11
4,C13U G22A A25C C31A G35C C46U,0.07
5,C18G U28C U43C,0.06
6,A11C A14G C31G,0
7,A6C A14C G44U,0.09
8,A4C G5U A26G,0.09
9,G1U G2A C10A C18G G30C,0.01
10,G1U A6C U34G,0.02
11,C8U U9A G21C U28G A39U,0.02
12,G5A G22A C23A A26U U34A C37U A39C,0.01
13,C13A G30C C31U C45U,0.06
14,G22A G35U U38C,0.11
15,C8U C18A G27A,0.22
16,U9G A14C C23A,0.1
17,G5A C37G G44C,0.01
18,U9G U32G A39U,0.02
19,C23A G29A G35U,0.01
20,G1C G5C C10G A16G C37A,0.02
21,A4G A12U C37G U38G,0.01
22,C3U A6G C8A U9C G27U A39U,0.07
23,G2U C8G C23A,0.01
24,U20A G22U G30C C31U U34A C37U A39G G40A,0.77

row,Variant,self-cleavage
1,C31G A41C C45U,0.05
2,C10A G19U G22A A39G,0.01
3,C18A A26G C42U,0.04
4,A4U A12C A16C G17A G30U G33A,0.04
5,G5U G35C U38G G40U,0.08
6,C8A G22U U38A,0.09
7,G19A A24C A39C,0.27
8,C3A G7A G40C,0.16
9,C8G C18A A25U G29C G30U U34C G36C,0.05
10,C18U C23A G29C,0.22
11,G7U C8A A25C G27U,0.28
12,A4G G7A C15G,0.2
13,G2C C18A C23A U38A,0.15
14,A6G G19C C23U G33U,0.06
15,G17U C23A U28C C46A,0.77
16,G1U G5A C15A U20C C31G,0.04
17,C15G U32A G36A A39U G40U,0.01
18,C10A A26G G40U,0
19,U9A G17A A41U,0.08
20,G2U C8A U9A A39U C45A,0.03
21,C3G C10G C31A G44U,0.01
22,G2U G7U U9G,0.07
23,G1U C3G U28G G30U U34G U38G,0.01
24,C3U G21U C45U,0.33

row,Variant,self-cleavage
1,C10U C15G C23U,0.09
2,G7A C8U G19U C23A,0.08
3,C18A A25U C31G G40A,0.04
4,G2A G5C A11G,0.04
5,G2A A11U U43A,0.06
6,C15U G27A U34A,0.08
7,C3A U38G G44C,0.01
8,G2C G19A C23A G27C G30U,0.12
9,C3A A4G G7U U9A C23A,0.16
10,G5A G19U G27U G29A G30A C37U G40U,0.01
11,A14G G29C C31U,0.04
12,G17C G21U G35A C37U C46U,0.01
13,G1C A12G G29C G33U C45G,0.03
14,C8A G19A C23U G30U U34A A41G,0.1
15,G1A C10U A11U G21C,0.09
16,C3G A14U C45G,0.3
17,G30U U32G C45U,0.02
18,A12G A16C G21U G27U U32G G36U G40A C46G,0.01
19,A14G G29C C37G C46U,0.01
20,A24G G29U U38A G40A U43C,0.02
21,A4G A11U U20A,0.01
22,C3A C13G C31G G36U G40U,0.23
23,C3U C10A A24C G33C,0.03
